Data taken from the supplement of paper PMC3334620.
Whole data set: some 33,000 sequences, median “E-score (-0.5 to 0.5)” near -0.01, cut for the highest 2% near 0.26. This is one part of the list.

target: Ste12 (UniProt P13574); assay: PBM E-score (8-mer binding enrichment) (E-score (-0.5 to 0.5)); higher = stronger / more preferred TF binding; most listed sequences are background and not binding sites; settings: protein concentration: 200 nM; construct: GST-DNA-binding domain
Procedure, shortened: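 Using PURExpress in vitro transcription/translation, GST-tagged yeast transcription factors were made in full-length or DNA-binding-domain form. These were applied at about 100-200 nM to double-stranded universal all-10-mer Agilent arrays, and bound protein was detected with fluorescent anti-GST. Scans were normalised with masliner before the Universal PBM Analysis Suite assigned E-scores to ungapped eight-base words pooled with their reverse complements.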

Sequence	PBM E-score
CAGTGTGG	-0.192
CAAACTGC	0.214
AAAACAAG	0.104
CGTGCGAG	0.0943
CGCATTAG	-0.136
CTTACGAC	-0.0711
AAAGTCAG	0.0447
ATAGGTTG	-0.0417
ACCACGCT	-0.172
GAGAGTAA	0.142
GCCCGAGC	0.0127
ATCGTTAC	0.0488
ACAATGTA	0.0356
TCACATAA	0.176
ACGAGGTG	7e-05
AGTCACTA	-0.073
ATAAAATC	0.174
CAAGTATC	-0.106
ACATCGCA	-0.0738
GCTTCGTA	-0.0973
CATCAGGC	-0.111
GCCCGTTA	-0.163
CCCCCATA	-0.234
ATATGCTG	-0.00346
CAAGATGC	0.0625

Sequence	PBM E-score
GCAATACA	0.195
GCACAGGA	-0.222
GTCAAAGA	-0.00052
AATCCGCT	-0.113
AAATCACC	0.157
AACTTGAA	0.197
CTTTCTGA	0.175
CCTACCAA	-0.00838
AGGGTGCA	-0.218
CGGCGTGA	-0.0692
CGTCGGCA	0.0307
CGTCGCAA	0.206
CCCTGCGA	-0.0669
ATCATAAT	0.151
CGGCGTTA	0.137
CAGCTCAA	0.125
ATTTGGCC	-0.126
AACGCCTT	0.0337
AAGTATTC	-0.0278
AGAGTGCT	-0.0029
CTCGGTTC	-0.151
CATTCCGC	0.0376
ATAGACAG	-0.143
TACGTAGA	-0.133
ACAGCTCA	-0.102

Sequence	PBM E-score
GGATATAC	0.0903
TATAAGGA	0.124
TAAGTAGA	0.0759
CACCTAAG	-0.0332
ATAAAAAC	0.134
CACCAGGC	-0.154
GATAGACC	-0.144
CAGTCTCC	-0.15
CAGTTTGC	0.0928
CATAAAGG	-0.0477
CCTCCTAA	-0.058
ATTGAGCC	0.0949
CCGGCAGG	-0.0782
CCTTTGAG	-0.119
CTCATATC	-0.13
TATGGTCA	-0.0454
CCGGTGCA	0.0711
AGCTGTAA	-0.023
GACTACGA	-0.163
GAAGCCCA	-0.179
GATGTACC	-0.115
AACCGGGC	-0.0147
ATGATGCC	0.0128
ATTCACGC	-0.0199
AGTTATGG	-0.102

Sequence	PBM E-score
CACCGATA	-0.0326
ATCTCAGA	0.0434
CCCTTCAG	-0.154
CTCGGTTA	-0.0357
ACGGAAGG	-0.117
CACCTGGA	0.00124
TCTTGTAA	0.186
ATCCTGGG	0.0052
CCATTTAG	-0.0197
AACATAAC	0.0575
CCGATTAG	0.1
CCATTTCG	-0.219
GACTCGGA	-0.0923
GGGCGCCA	0.0281
CCACCCTA	0.107
CTGTCCAA	-0.0723
GGTCTGAC	-0.127
CTTACTTC	0.0889
CGAAAGTA	0.0432
GATGCTCC	-0.125
GCAGCTGC	0.00859
TCGGCGCA	0.06
AAAAACCC	0.0736
CTAGTGTA	0.129
CCTACGAG	-0.0858

Sequence	PBM E-score
CCTAGAGA	-0.154
GCGTGCCC	-0.132
GAAAGGTA	-0.032
AGATGCTG	-0.0848
CTCCGGGC	-0.00144
CCCCGAGC	0.0007
TCAAGCCA	-0.0863
CTATCAAA	0.186
AGCCCTCA	-0.112
GCCCGTAC	-0.132
CCACAAAC	0.122
CGTTCCAA	0.0893
TAAGAAAA	0.235
GTTGAACA	-0.269
GGTCCCCA	-0.21
CTCAAAAA	0.178
AAACTAGG	0.0381
CAGATGCG	-0.175
TTCGGCAA	0.193
CGCAACGA	-0.0782
ATTTCAGA	0.00371
AACTTCGG	0.199
GTTTCATA	0.481
CTCTGTCA	-0.0992
ATTCAGAC	0.109

Sequence	PBM E-score
CCTAGTGA	-0.239
CTAAAGGC	-0.145
CGTTTTTA	0.165
GGGCATAC	-0.181
ACCGGGTC	0.0358
CTACGATC	-0.157
ACATTTAC	0.114
CGGCGTAG	-0.0316
ACAATTGC	-0.0789
ACTCGACA	0.00181
CTTTATAA	0.153
ACTGGTAT	-0.14
AAAGGGAC	-0.0471
ATTTCGGG	-0.12
ACGCTCAT	-0.0693
CGCTACGC	-0.228
GGTCTGCA	-0.0319
CGAACTTC	-0.111
CATGATAG	0.049
CAAAGCGA	0.0708
CCTTGCTC	-0.0796
AATTCGTG	0.023
ATGCACAC	-0.161
CCCACGGA	-0.11
AGATTAAT	0.0881

Sequence	PBM E-score
AAGGGTGT	0.0285
ATGGTACG	0.00709
GGTCTCAC	0.0358
AACGAGAG	0.0712
TAGAGCTA	-0.128
AATACGGA	0.067
GGCGCCTA	0.0309
CTTTGTTC	0.227
GTCTGAAA	0.314
AACCGTAA	0.0346
CAGATTAA	0.238
CTCGGACC	-0.0902
GAATAATC	0.00357
ACCCCAGA	-0.0601
AGCTGCCG	0.0275
GTCTACAA	-0.138
AGACCCAG	-0.117
ACCCGCCA	-0.0831
CCGTTCCG	0.0117
CGATGTAC	0.0035
ACAAGCAA	-0.00365
AAGGACGG	-0.176
CAGCCTGC	-0.107
CTAAGCGC	0.0248
GCCCATAC	-0.0724

Sequence	PBM E-score
AAATCTAT	0.196
ACCGGAAA	0.109
GGATTTAA	0.243
CTGTGATC	-0.191
TCCCCCAA	-0.0923
TGGCGGAA	-0.112
CATGACTC	-0.104
CTGGTGCA	-0.0475
CAGAGCAA	0.0905
CCGGAACC	0.0511
CTACTCGC	-0.0337
CCGACCAG	-0.138
TGCTGCAA	0.0531
ATAGGTGA	-0.0202
GATTATAC	0.0507
AAGCCAGG	-0.177
ATCCCCGC	0.249
CTGTCCCC	-0.0882
GACACCAA	0.108
CGCCGGAA	0.0651
AACCTTGA	0.0675
ACCGGCCT	-0.0798
CAGCCAGC	-0.158
ATAAGACC	0.106
GGCGTCCC	-0.00088

Sequence	PBM E-score
ATAATCTA	0.136
CGCCCTAA	-0.0721
CATACGTC	-0.00573
ACCGCGCC	-0.034
AGTGAACC	-0.0809
CACGAAAG	0.095
GTCTTAAA	0.0648
CAGAAGTC	-0.15
TATAGCAA	0.0525
GACTGTCA	-0.139
CAAGGGAA	-0.161
CTTTAATC	0.108
ACGTAGCT	-0.285
GCAGCGCC	-0.00626
ACTTTTTA	0.198
AAGATAAC	0.0268
TGCCCTAA	-0.22
CGGTGTCC	-0.209
CTGGGTGA	-0.118
GCAACGCA	-0.148
ATCGTAAA	0.186
GGCGTGTA	-0.181
ATGGTCCC	-0.197
CGGTACTC	-0.195
GACATTGC	-0.147

Sequence	PBM E-score
ATATTTAA	0.347
CACCTTTC	0.00448
TCACCCGA	0.158
AGAGCAAT	-0.107
AAGAGCGG	0.121
CTAAGTAC	-0.235
AAGAGGAC	-0.264
CACATCAC	0.0988
AGCTGATA	0.0329
AAAAAGAC	0.153
TCAGACGA	-0.0271
CACTAAGA	0.0208
CGGGCCAA	-0.052
ATCCTGTC	0.0934
ATAGCTCA	-0.0443
AACATAGT	0.0485
GCATAAAC	0.261
ACTCGGTC	-0.134
TAGACTCA	-0.187
ACGCTTAA	-0.0288
ACACCAGC	-0.101
GCGCAAGC	0.00596
GGGTAAGA	-0.0186
AACTCGCG	0.195
CTAATACC	-0.0758

Sequence	PBM E-score
GCCTACTA	-0.00368
ATTAGTTG	0.0922
ACTAGTCC	-0.104
CGCTTTGA	0.0516
AGGGGACC	-0.215
ATAATAAA	0.255
TACCATCA	-0.133
ATCCTGAA	0.151
AGACATCG	-0.182
CGATTACA	-0.139
ATGCCAAA	-0.0117
CGGTAAAC	-0.0353
AAGGTGGA	0.0581
AATGGCGC	-0.103
ACCGGTAT	0.0132
CGACGTAA	-0.0256
GTCCCCGA	-0.0338
CGACTCAA	0.0158
ACTGCTAT	-0.00787
CACAGCAA	0.108
ACTCTAGG	-0.0955
GAACTATA	0.203
GTACGAAA	0.182
ACGCGCGA	-0.00668
AACTCATA	0.162

Sequence	PBM E-score
AGTTATAT	0.207
CCGAGAGA	0.0747
CGGACAGC	-0.158
GTTGCTCA	0.00037
GAGTTTCC	-0.00944
CGGGACAG	0.0692
AGCGCCAA	-0.12
GTTACCAA	0.118
ACAGAGTC	-0.035
AAAGAGCA	0.0324
ACTCACCT	-0.208
AGTATTAG	0.173
CGGTGACC	-0.247
AGCAACCA	0.0763
AAATCGGC	0.101
CTGCCCGA	0.0365
AAAAACCT	0.263
CGAGTCTA	-0.101
TCAAATCA	0.158
CAAGGGGA	0.0228
AAAGGGTA	-0.045
AAGCGCCC	0.0333
CCATCACA	-0.177
CACGGATG	-0.171
AACTGATG	0.122

Sequence	PBM E-score
GAACATTA	0.142
ATTGCCTG	0.0807
AGGGCCTG	-0.00927
GGGCCACC	0.0264
CCCCACCC	0.361
CCCTACGC	-0.251
CTTCAGAA	0.19
GCCTGAAC	-0.209
GCTATAAC	-0.0199
AGGAAGGC	-0.0323
GTGTTTCA	0.489
AAAGGAAA	0.205
ATGTAACA	0.288
CTCGGCGA	-0.0728
ACCTTCGG	-0.0222
CCATATTC	0.061
ATCAGCCC	-0.0153
CAATGTCC	-0.0701
GGCTCGAC	-0.191
GCCTCACC	-0.0151
CAGTATGC	-0.239
AGTGTAAA	0.2
TATCTCGA	0.0352
CGCTTGGA	-0.227
AGAGGCCT	-0.233

Sequence	PBM E-score
AAGGTTGC	-0.00125
ATCGATGG	0.0234
CGGTATAC	-0.108
GGTATGCA	-0.298
GTGCCAGA	-0.0442
CGGGGGGC	-0.0839
GGGCCCAA	-0.121
CACGTGTC	-0.0718
GGGATTGA	-0.0715
ACTCTAAT	-0.0135
GATCCTCC	-0.0451
GCAGCAAA	0.0116
ACTCCAAC	0.00044
AGTTTTGA	0.148
AAATCTAA	0.132
ACATCCGG	-0.0408
GCTTGGGA	-0.164
CGGACGCC	-0.0656
ATCAGCAG	0.0355
